Experimental data from PubChem BioAssay AID1508642 (National Center for Advancing Translational Sciences (NCATS), 2021).
About 200 (0.47%) of roughly 43,000 compounds were called active. Not shown: some 12% with an inconclusive outcome. Calls come from the whole dose curve; as a rule, active = well fitted cell-killing curve with a large enough effect; inconclusive = small, poorly fitted or top-dose-only effect, or effect the other way; inactive = flat fitted curve, though single readings scatter. Some of the results follow.

Assay: Cell viability qHTS assay in S16 Pmp22-F2sN cells; note: nearly all actives have a fitted effect of over 65% in size
Settings: S16 Pmp22-F2sN Schwann cells (luciferase reporters placed in the Pmp22 gene) viability, CellTiter-Glo, 24 h; series mostly up to 57.5 µM; activity change, negative = cytotoxicity: at the top concentration
Method in brief: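 Seed 500-1,000 S16 Pmp22-F2sN cells per well in phenol-red-free DMEM with 10% heat-inactivated FBS; pin-add 23 nL compound; incubate 24 h at 37C; add CellTiter-Glo, wait 15 min protected from light; read luminescence.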
% is set by controls: 0 for no effect and ±100 for the full control effect.

SMILES	activity change, negative = cytotoxicity
Cc1cccn2c3c(c(=O)nc12)C(c1ccc(F)cc1)CC(=O)N3 (stereo not given)	inactive: -0.186%
CCCN(C(=O)c1c(C)oc2ncnc(N3CCOCC3)c12)c1ccc(Cl)c(Cl)c1	inactive: 1.82%
O=S(=O)(NCC(c1ccco1)N1CCN(c2ccccc2)CC1)c1ccccc1 (stereo not given)	inactive: -3.41%
CCOc1ccc(Cn2nnc(C(=O)Nc3ccc(Cl)cc3)c2N)cc1	inactive: -5.48%
COc1cc(OC)cc(-c2cc3nc(C)c(CCC(=O)Nc4ccccc4OC)c(C)n3n2)c1	inactive: -0.678%
O=C(CN(c1ccc(Cl)c(C(F)(F)F)c1)S(=O)(=O)c1ccccc1)Nc1cccnc1	inactive: -7.08%
COCCNC(=O)Cn1c(=O)c2cccn2c2ccc(F)cc21	inactive: 4.49%
N#Cc1ccccc1CSc1nnc2ccc3ccccc3n12	inactive: -1.69%
COCc1c(Br)c(C)nc2sc3c(=O)n(-c4cccc(Br)c4)nnc3c12	inactive: -1.29%
CCN(CC)CCNC(=O)c1cn(CC)c2ccc(S(=O)(=O)N(C)C3CCCCC3)cc2c1=O	inactive: 8.72%
Cn1c(C(=O)N2CCC(C(=O)NCCc3ccccc3)CC2)cc2sccc21	inactive: -0.828%
CC(NC(=O)c1ccco1)c1nc(-c2ccccc2)no1 (stereo not given)	inactive: 21.4%
Cc1cc(=O)n(CC(=O)NC(C)c2ccccc2)c2c1c(C)nn2-c1cccc(F)c1 (stereo not given)	inactive: -11.1%
Cc1ccc(C)c(-n2nnc(-c3nc(-c4ccccc4C)no3)c2C)c1	inactive: -1.59%
COc1ccc(-c2nn(-c3ccc(C)cc3)c3c2cnc2ccc(C)cc23)cc1OC	inactive: 28.3%
COc1ccc(CCNc2nc3cc(OC)c(OC)cc3c3nc(-c4ccccc4)nn23)cc1OC	inactive: 1.93%
CCOc1ccc(-c2nc(CSCC(=O)NCc3ccc(C)cc3)c(C)o2)cc1	inactive: -10.9%
COC(=O)c1cc(NC(=O)c2sc3ccccc3c2Cl)cc(C(=O)OC)c1	inactive: 24.5%
COC(=O)c1cc2occc2n1CC(=O)Nc1ccc(C)cc1Cl	inactive: -8.56%
O=C(NCC(c1cccnc1)N1CCN(Cc2ccccc2)CC1)C(=O)Nc1cccc(Cl)c1 (stereo not given)	inactive: -29%
O=C(O)c1cccc(-n2cnc3cccnc32)c1	inactive: 15.7%
CCCN1CCN(CCCNC(=O)C(CC)n2nc(C)n3c(cc4occc43)c2=O)CC1 (stereo not given)	inactive: 13.4%
COc1ccc(CCNC(=O)CCCn2nc(C)c3sc4ccccc4c3c2=O)c(OC)c1	inactive: 14.4%
CCOc1ccc(NC(=O)Cn2c(=O)n(CCCS(=O)(=O)C3CCCCC3)c(=O)c3ccccc32)cc1	inactive: -3.51%

SMILES	activity change, negative = cytotoxicity
Cc1cccc(NC(=O)CCNS(=O)(=O)c2ccc3c(c2)CCN3C(=O)C2CC2)c1	inactive: -3.92%
CCOC(=O)C1CCN(C(c2ccc(C)cc2)c2c(O)cc(C)n(CCOC)c2=O)CC1 (stereo not given)	inactive: 5.14%
Cc1ccc(NC(=O)Cn2cc(C(=O)C3CCCCC3)c3ccccc32)cc1	inactive: -1.34%
COc1ccc(N2CCN(C(=O)C3CCN(S(=O)(=O)c4cn(C)cn4)CC3)CC2)cc1	inactive: -19.2%
Cc1cccc(N(C)C(=O)Cc2c(C(=O)O)[nH]c3ccccc23)c1	inactive: -7.67%
Cc1ccc(-n2ncc3c(N4CCC(Cc5ccccc5)CC4)ncnc32)cc1C	inactive: 12.5%
Cc1ccc(OC(=O)CSc2nnc(-c3ccc4c(c3)OCO4)o2)cc1	inactive: -4.1%
Cc1ccc(C(=O)Nc2ccccc2)cc1S(=O)(=O)Nc1ccccc1	inactive: -5.66%
Cc1ccc(NC(=O)C2CCC(CNS(=O)(=O)c3cccc4nsnc34)CC2)c(Cl)c1 (stereo not given)	inactive: 0.44%
O=C(Cc1ccccc1)Nc1sc2c(c1C(=O)Nc1ccc(Br)cc1)CCCC2	inactive: 0.154%
COCCCn1c(-c2ccc(S(=O)(=O)N3CCOCC3)cc2)csc1=Nc1ccccc1	inactive: -1.09%
CC1(c2ccc(Cl)cc2)CC(C)(C)N(C(=O)c2cccc(F)c2)c2ccccc21 (stereo not given)	inactive: -13.6%
COc1ccc(CNC(=O)c2cc3sccc3n2Cc2ccc(C)cc2)cc1	inactive: -2.23%
COc1ccccc1NC(=O)Cn1c(=O)n(CC(=O)NCc2ccccc2Cl)c(=O)c2sccc21	inactive: -19.6%
COc1ccc(C(=O)Oc2c(Sc3ccc(C)cc3)c(C)nn2C(C)(C)C)cc1OC	inactive: 0.545%
O=C(c1ccc2c(c1)N(Cc1ccc(Cl)cc1)C(=O)c1ccccc1S2=O)N1CCCCC1 (stereo not given)	inactive: 14.2%
Cc1ccc(C(=O)Oc2cc(-c3ccc4c(c3)OCO4)cc(=O)c3c(C)oc(C)c23)cc1	inactive: -18.3%
Cc1ccc(C(=O)NC2(C(F)(F)F)N=C(c3ccccc3)N(Cc3ccccc3)C2=O)cc1 (stereo not given)	inactive: -15.3%
CC(=O)c1ccc(NS(=O)(=O)c2ccc(-n3cccn3)cc2)cc1	inactive: 3.51%
Cc1ccccc1OCCSc1nc2ccc(NC(=O)c3cccs3)cc2s1	inactive: -11%
Cn1c(=O)cc(SCC(=O)N2CCN(c3ccccc3F)CC2)c2ccc(Cl)cc21	inactive: 0.335%
COCCCNC(=O)CSc1nc2cc3c(cc2c(=O)n1CCCC(=O)NCc1ccc2c(c1)OCO2)OCO3	inactive: -1.29%
CCn1nc(-c2ccccc2)c(-c2ccccc2)c(C(=O)Nc2ccc(NC(C)=O)cc2)c1=O	inactive: -2.64%
Cc1cc(C)cc(Oc2nc3ccccn3c(=O)c2/C=C(\C#N)c2nc3ccccc3s2)c1	inactive: 13.5%

SMILES	activity change, negative = cytotoxicity
Cc1ccc(-c2csc(=Nc3ccccc3)n2Cc2ccc3c(c2)OCO3)cc1	inactive: -1.59%
Cc1ccc(Cn2ccnc2SCC(=O)Nc2nnc(C)s2)cc1	inactive: 4.53%
COc1ccc(OC)c(NC(=O)Nc2c(C)n(C)n(-c3ccccc3)c2=O)c1	inactive: 8.54%
CCc1ccccc1NC(=O)C(C)n1c(=O)cc(C)c2c(C)nn(-c3ccccc3)c21 (stereo not given)	inactive: 1.26%
COC(=O)c1ccc(CSc2nc3c([nH]c4ccccc43)c(=O)n2-c2cccc(Cl)c2)o1	inactive: 13.2%
CCOC(=O)C1CCCN(C(=O)Cn2ncc3c4ccccc4n(Cc4ccccc4)c3c2=O)C1 (stereo not given)	inactive: 3.4%
CCN(CC)S(=O)(=O)c1ccc2c(c1)nc(CN(C)C(=O)Nc1ccc(C)c(F)c1)n2C	inactive: -2.87%
CCc1ccccc1NC(=O)CN1C(=O)CCSc2ccc(S(=O)(=O)N3CCCC3)cc21	inactive: -0.138%
O=C(OCC1CCCO1)c1ccc2c(c1)N(Cc1ccccc1)C(=O)c1ccccc1S2(=O)=O (stereo not given)	inactive: 4.43%
COc1ccc(NC(=O)c2sc3nc(C(F)(F)F)cc(C)c3c2N)cc1OC	inactive: 18.8%
Cc1ccc(NC(=O)c2nc(S(C)(=O)=O)ncc2N(Cc2ccco2)Cc2cccs2)cc1C	inactive: -2.05%
COc1ccc(N2CCN(C(=O)COCc3cc(-c4ccc5c(c4)OCO5)on3)CC2)cc1	inactive: 14%
O=C(Nc1ccc(C(=O)OCc2cc(=O)n3nc(C4CC4)sc3n2)cc1)c1cccc(F)c1	inactive: 16.5%
CCN(c1ccccc1)S(=O)(=O)c1ccc(NC(=O)c2cc(=O)c3ccccc3o2)cc1	inactive: -17.3%
Fc1ccc(Nc2ncnc3c2nc2n3CCCCC2)c(F)c1	inactive: 24.8%
COCCCNC(=O)c1ccc2c(c1)nc(C)n2-c1cccc(C)c1	inactive: 18.8%
Cc1c(C(=O)OC2CCCCC2)[nH]c2c1C(=O)CC(c1ccc(C(C)(C)C)cc1)C2 (stereo not given)	inactive: 0.0324%
CCC(=O)N1CCc2cc(Br)cc(S(=O)(=O)CCC(=O)N3CCN(c4cc(C)ccc4C)CC3)c21	inactive: 6.91%
CCCc1nnc(NC(=O)c2cc(=O)c3cc(C)c(C)cc3o2)s1	inactive: -17.1%
O=C(Nc1ccc(F)cc1)C1CCN(S(=O)(=O)c2ccc3c(c2)CCCN3C(=O)C2CCC2)CC1	inactive: 7.41%
CCOC(=O)c1c(S(=O)(=O)N2CCC(C(=O)Nc3ncccc3C)CC2)c(C)n(C)c1C	inactive: 0.324%
CCOC(=O)c1cc(-c2ccc(OC)cc2)n(CCC(=O)NC2CCCCC2)c1C	inactive: -23.5%
Cc1ccc(Cn2c(=O)n(CCCCC(=O)NCc3ccccc3Cl)c(=O)c3ccccc32)cc1	inactive: -0.965%
O=c1[nH]c2ccc(NCc3ccc(-c4ccccc4)o3)cc2[nH]1	inactive: -9.21%

SMILES	activity change, negative = cytotoxicity
Cc1cccc(OCC(=O)Nc2ccccc2C(=O)OCc2cc(=O)n3nc(C)sc3n2)c1	inactive: 3.69%
CCOc1ccc(NC(=O)CCCc2nnc3n(C)c(=O)c4sccc4n23)cc1	inactive: -1.5%
O=C(NCc1ccccc1F)C(=O)NCC(c1ccco1)S(=O)(=O)c1cccs1 (stereo not given)	inactive: 0.0049%
O=C(CSc1nc(-c2ccccc2)nc2c1Cc1ccccc1O2)N1CCCCC1	inactive: 14.4%
CC1=C(C(=O)Nc2ccccc2)C(c2cccc(Cl)c2)n2nc(SCC(=O)c3ccc(C)cc3)nc2N1 (stereo not given)	inactive: 0.824%
Cc1ccc(CCNC(=O)c2cc3c(-c4ccccc4F)nn(C)c3s2)cc1	inactive: 1.59%
COc1ccc(OC)c(NC(=O)c2cn(CC(C)C)c(=O)c3cc(OC)c(OC)cc23)c1	inactive: -11.4%
O=C(Nc1ccc2oc(-c3ccc4ccccc4c3)nc2c1)c1ccc(Cl)c(Cl)c1	inactive: 3.43%
O=C(Nc1ccc(Br)cc1F)N1CCC(CN2CCc3ccccc3C2)CC1	inactive: -13.4%
COC(=O)c1cc(Cl)ccc1NC(=O)CSc1ncc(S(=O)(=O)c2ccc(Br)cc2)c(=O)[nH]1	inactive: -3.59%
COc1ccc(C(=O)COC(=O)CCCC(=O)Nc2cc(C(F)(F)F)ccc2Cl)cc1	inactive: 10.4%
CC(C)CC(=O)Nc1ccccc1OCc1cc(=O)n2ccccc2n1	inactive: 9.67%
CC(=O)N1CCc2c(sc3c2c(=O)n(-c2cc(Cl)ccc2C)c(=O)n3Cc2ccccc2F)C1	inactive: 3.07%
O=C(NCCc1ccc(Cl)cc1)c1cc(-c2ccc(Cl)cc2)n[nH]1	inactive: 0.026%
Cc1ccc(CNC(=O)CCCc2nnc3n(C)c(=O)c4sccc4n23)cc1	inactive: 3.73%
Cc1ccc(NC(=O)C(=O)NCC(c2ccc3c(c2)OCO3)N2CCOCC2)cc1C (stereo not given)	inactive: -4.62%
CCC(C)NC(=O)c1ccc2nc(CCc3ccccc3)oc2c1 (stereo not given)	inactive: -7.76%
COc1ccc(OCC(=O)OCc2cc(=O)n3nc(C4CC4)sc3n2)cc1	inactive: -8.98%
CCCCOC(=O)c1ccc(NC(=O)c2cc(-c3cccs3)on2)cc1	inactive: -4.52%
Cc1ccc(Nc2c(-c3ccc(C)s3)nc3ncccn23)cc1	inactive: -5.41%
CCOC(=O)c1c(NC(=O)/C=C/c2ccc(C)cc2)sc2c1CCCC2	inactive: 5.86%
CCOC(=O)c1cnc2cc(F)c(F)cc2c1Nc1ccccc1O	inactive: 7.35%
Cn1c(=O)c2c(nc(NCCc3ccccc3)n2Cc2ccc(Cl)cc2)n(C)c1=O	inactive: -22.3%
